# Measurements as given in paper PMC4336329 (PLoS ONE, 2015).
# About 14,000 (4.5%) of roughly 310,000 compounds showed an effect of 50% or more. The effect is printed as a negative number. The list shows a part of the results. Where a SMILES comes first, the peptide text is derived from it. The star is where a group is joined. Bz = O=C(c1ccccc1)*
# Target: human ether-à-go-go-related gene (hERG) potassium channel (human, UniProt Q12809)
# Test: primary screen, population patch clamp on CHO cells stably expressing hERG
# 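Further: peak tail current of the secondary pulse compared with the same well before compound.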
# human ether-à-go-go-related gene (hERG) potassium channel, sequence (Q12809 whole entry, looked up): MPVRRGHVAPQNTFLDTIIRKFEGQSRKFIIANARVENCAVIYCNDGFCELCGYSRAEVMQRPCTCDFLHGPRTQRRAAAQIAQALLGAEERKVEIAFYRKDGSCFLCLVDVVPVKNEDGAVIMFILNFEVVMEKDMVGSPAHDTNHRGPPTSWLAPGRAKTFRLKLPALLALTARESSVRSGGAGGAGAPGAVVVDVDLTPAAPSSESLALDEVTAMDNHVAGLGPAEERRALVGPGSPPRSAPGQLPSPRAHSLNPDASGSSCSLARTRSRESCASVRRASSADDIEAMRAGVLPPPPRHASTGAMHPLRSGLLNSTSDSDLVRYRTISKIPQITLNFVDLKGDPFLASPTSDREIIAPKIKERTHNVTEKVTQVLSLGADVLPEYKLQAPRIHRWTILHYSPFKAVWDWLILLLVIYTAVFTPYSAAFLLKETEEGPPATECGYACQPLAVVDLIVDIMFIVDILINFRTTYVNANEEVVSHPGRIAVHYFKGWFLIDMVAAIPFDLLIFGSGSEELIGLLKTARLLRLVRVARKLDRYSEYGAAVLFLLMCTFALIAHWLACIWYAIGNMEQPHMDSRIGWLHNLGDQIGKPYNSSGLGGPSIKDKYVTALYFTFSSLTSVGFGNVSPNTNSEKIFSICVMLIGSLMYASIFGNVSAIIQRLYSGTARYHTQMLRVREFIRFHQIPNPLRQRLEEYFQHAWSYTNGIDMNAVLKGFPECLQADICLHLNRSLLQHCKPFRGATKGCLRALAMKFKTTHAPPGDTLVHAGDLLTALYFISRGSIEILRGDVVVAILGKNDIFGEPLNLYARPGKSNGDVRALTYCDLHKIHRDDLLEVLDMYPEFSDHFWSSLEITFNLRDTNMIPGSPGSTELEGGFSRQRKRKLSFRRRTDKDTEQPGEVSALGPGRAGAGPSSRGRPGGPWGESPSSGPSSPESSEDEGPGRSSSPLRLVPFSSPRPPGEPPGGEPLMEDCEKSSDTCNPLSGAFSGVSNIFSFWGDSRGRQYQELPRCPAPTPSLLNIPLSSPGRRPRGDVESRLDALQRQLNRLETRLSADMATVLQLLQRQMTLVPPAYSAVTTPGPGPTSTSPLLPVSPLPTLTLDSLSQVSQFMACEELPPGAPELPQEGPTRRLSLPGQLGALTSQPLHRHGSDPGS
row,Structure (SMILES),"hERG current change (%, negative = inhibition) at 10uM"
1,O=C(NCCNC1CCN(Cc2ccccc2)CC1)c1cccs1,-15.2%
2,O=C(O)c1[nH]c2ccccc2c1NS(=O)(=O)c1ccc(F)cc1,15.2%
3,Cc1cccc([C@@H]2[C@@H]3C(=O)N(Cc4ccccc4)C(=O)[C@@H]3[C@]3(CC(C)C)C(=O)N(c4cccc(Cl)c4)C(=O)N23)c1,4.4%
4,Cc1ccc(F)cc1NC(=O)Cc1nn(C)c(=O)c2ccccc12,8.8%
5,Nc1nnc(CSCc2ccccc2Cl)s1,19%
6,COc1ccc(-c2csc(NC(=S)NC(=O)/C=C/c3ccco3)n2)cc1OC,-5.17%
7,COc1ccc(/C=C/c2nc(S(=O)(=O)c3ccccc3)c(N(C)C)o2)cc1OC,-1.03%
8,CCn1ncc(NC(=S)NCCc2ccc(OC)c(OC)c2)c1C(N)=O,16.1%
9,O=C(Nc1cccc(N=Cc2cc(Br)cc(Br)c2O)c1)c1ccco1,3.77%
10,Nc1ccc(C(=O)O)c(O)c1.Nc1ccc(C(=O)O)c(O)c1,3.38%
11,CCn1cc(C(=O)O)c(=O)c2ccc(C)nc21,14.8%
12,O=C(CCNc1n[nH]c(=O)[nH]c1=O)N/N=C/c1ccc(C(F)(F)F)cc1,24%
13,O=C(c1ccc2c(=O)n(Cc3ccc(Cl)cc3)c(=S)[nH]c2c1)N1CCCC1,26%
14,Cc1c(C)c(C)c(S(=O)(=O)NCCc2ccccn2)c(C)c1C,-7.95%
15,COC(=O)c1sc2ncccc2c1OCc1cccc(Cl)c1,18.3%
16,O=C(COC(=O)c1ccc(S(=O)(=O)N2CCOCC2)cc1)Nc1nc(-c2ccccc2)cs1,-15.8%
17,COc1cccc(Cn2c(=O)oc3ccccc32)c1,4.3%
18,Cc1cccc(C)c1NC(=O)C(C)N1CCCC1 (stereo not shown),5.02%
19,Cc1noc(C)c1C(=O)OCC(=O)NCCC1=CCCCC1,2.18%
20,COc1ccc(CCNC(=O)CS(=O)Cc2nc(-c3ccc(C)cc3)oc2C)cc1OC (stereo not shown),-10.9%
21,COc1ccccc1-c1c(C)nn2c(N3CCCCCC3)cc(C)nc12,-8.02%
22,O=c1[nH]n(-c2ccccc2)c(=O)c2ccccc12,18.6%

row,Structure (SMILES),"hERG current change (%, negative = inhibition) at 10uM"
1,COc1ccc(C(=O)N/C(=C\c2cn(S(=O)(=O)N(C)C)c3ccccc23)C(=O)N2CCOCC2)cc1,-47%
2,CCn1c(SCC(=O)Nc2cccc(C)c2)nc2nc3c(cc2c1=O)COC(C)(C)C3,-23.1%
3,O=C(OCc1c(-c2ccccc2)ncc2ccccc12)c1ccc(Cl)cc1Cl,3.51%
4,CCCCOc1nc(N)nc(-c2ccccc2)n1,1.22%
5,CCCCCc1nc2sc3c(c2c(=O)n1NC(=O)c1ccc([N+](=O)[O-])cc1)CC(C)(C)OC3,-29.2%
6,CC(=O)c1cccc(NS(=O)(=O)c2ccc3c(c2)N(C(C)=O)CCO3)c1,13.7%
7,Cc1cc(C)c(C)c(S(=O)(=O)N2CCN(c3ncnc4ccccc34)CC2)c1C,-4.67%
8,CN(C)CCCOC(=O)C1c2ccccc2Oc2ccccc21.Cl,-7.6%
9,COc1ccc2oc(CS(=O)c3ccccc3)c(C(=O)O)c2c1 (stereo not shown),16.8%
10,COc1ccc(CCNC(=O)CS(=O)(=O)c2cn(CC(=O)N3CCOCC3)c3ccccc23)cc1OC,6.4%
11,CCCCCC(=O)Nc1nc(C)c(-c2csc(Nc3ccccc3OCC)n2)s1,4.35%
12,COC(=O)c1cc(C(=O)c2cc(Cl)ccc2O)coc1=N,-14.3%
13,O=C(NCCc1ccc(Cl)cc1)c1cccc(N2CCCC2=O)c1,-46.3%
14,COC(=O)C(NC(=O)C(NC(=O)c1ccccc1)C(C)C)C(C)C (stereo not drawn) (Bz-Val-Val-OMe; configuration not given here),1.63%
15,O=C(O)c1ccc(C2SCC(=O)N2Cc2ccco2)cc1 (stereo not shown),5.14%
16,CCCC(=O)C1=C(O)C(C(=O)OC)C(C)(C)CC1=Nc1ccccc1 (stereo not shown),-12%
17,CCCCC(=O)NC(c1ccccc1)c1ccc2cccnc2c1O (stereo not shown),-3.76%
18,COc1ccc(S(=O)(=O)N2CCCC(C(=O)NC3CC3)C2)cc1OC (stereo not shown),-3.52%
19,CCn1cc(/C=N/NC(=O)COc2cccc3cccnc23)c2ccccc21,8.01%
20,COc1cc(C(=O)COC(=O)C2CCN(c3ccc(C(F)(F)F)cn3)CC2)ccc1OC(F)F,-59.1%
21,CC(C)(C)Nc1nc(SCc2ccccc2)nc(N2CCOCC2)n1,-10.5%
22,CC1CCN(Cc2ccc(NC(=O)C3CCN(c4nnc(-n5cccc5)s4)CC3)cc2)CC1,1.05%

row,Structure (SMILES),"hERG current change (%, negative = inhibition) at 10uM"
1,CCOC(=O)C1=C(CNC(C)(C)CC(C)(C)C)NC(=O)NC1c1cccc([N+](=O)[O-])c1 (stereo not shown),-25.2%
2,CCN(CC)c1ccc(C(=O)OCC(=O)N(C(C)C)C(C)C)cc1,-3.71%
3,Cc1cccc(NC(=O)CS(=O)(=O)Cc2ccccc2)n1,2.58%
4,COc1ccc(C(=O)NCCNC(=O)c2ccc(OC)cc2)cc1,9.79%
5,Cc1c(C)c(C)c(CN2CCSCC2)c(C)c1C,18.4%
6,COCCOc1ccc(C(F)(F)F)cc1NC(=O)CN1C(=O)NC2(CCc3ccccc32)C1=O (stereo not shown),-9.36%
7,CCOCC(=O)Nc1cc(C(=O)Nc2cccc(C)c2C)ccc1Cl,8.85%
8,Oc1ccccc1CN1CCCC(N2CCc3ccccc3C2)C1 (stereo not shown),-38.8%
9,O=C(O)C1CCCCC1C(=O)Nc1ccc(OCc2ccccc2)cc1 (stereo not shown),17.6%
10,COCCNC(=O)Cn1cc(/C=C2\C(=O)NC(=O)N(c3cccc(C)c3C)C2=O)c2ccccc21,3.61%
11,CCCCn1c(N)c(N(Cc2ccccc2OC)C(=O)c2sccc2C)c(=O)[nH]c1=O,10.2%
12,CC(C)(C)N(Cc1ccccc1)C(=O)COC(=O)CN1C(=O)C2CC=CCC2C1=O (stereo not shown),11.7%
13,O=C(Cc1ccccc1)NC(=S)Nc1ccc2oc(-c3ccccc3F)nc2c1,-3.17%
14,COc1ccc(Cl)cc1C(=O)Nn1cnc2ccccc2c1=O,-8.82%
15,O=C(CCC(=O)Nc1ccc(F)cc1)N/N=C/c1ccc(F)cc1,13.1%
16,Cc1cc(-c2ccccc2)n(-c2ccc(C(N)=O)cc2)n1,4.7%
17,Cc1noc(C)c1COc1ccccc1C(=O)NCc1ccccc1Cl,-16.8%
18,COc1ccc(C(=O)NCC(=O)NCC(=O)OCC(=O)c2ccc(Br)cc2)cc1,15.3%
19,COc1ccc(NC(=O)CSc2nnc(Cn3cnc4ccccc43)o2)cc1,6.83%
20,CC(C)Cn1c(N)c(C(=O)CSc2nc3ccccc3n2C)c(=O)n(C)c1=O,-10.4%
21,CN1CCN(S(=O)(=O)c2cccc([N+](=O)[O-])c2)CC1,18.7%
22,CN(CC(=O)Nc1ccccc1Br)C(=O)CNC(=O)Cc1cccc2ccccc12,26.5%

row,Structure (SMILES),"hERG current change (%, negative = inhibition) at 10uM"
1,O=C(Cc1ccc(F)cc1)N1CCN=C1SCc1cccc([N+](=O)[O-])c1,-27.7%
2,CC(C)c1ccc(NC2=NCC(=O)N2Cc2cccs2)cc1.Cl,-4.49%
3,Cc1ccccc1N1CCN(C2CCCN(C(=O)c3ccnn3C)C2)CC1 (stereo not shown),0.102%
4,CCCc1nnc2c(N(C)S(=O)(=O)c3ccccc3)nc3ccccc3n12,11%
5,COc1ccccc1/C=N/NC(=O)COCC(=O)N/N=C/c1ccccc1OC,3.56%
6,Cn1c(N)c(C(=O)COC(=O)c2ccc3c(c2)OCCO3)c(=O)n(C)c1=O,1.14%
7,COc1ccccc1C(=O)NCCC(=O)NC(C)c1ccc(-n2ccnc2)cc1 (stereo not shown),-17.1%
8,O=C(/C=C/c1ccc(-c2ccc(F)cc2)o1)N1CCCC1,-5.18%
9,CCOC(=O)N1CCN(Cc2nc3cc(NC(C)=O)ccc3n2C)CC1,25%
10,Cc1cc(C)nc(N2CCCC(CCC(=O)NCc3ccc(F)c(F)c3)C2)n1 (stereo not shown),-1.25%
11,COc1ccc(C(=O)C2CCCN(Cc3ccc(F)cc3F)C2)cc1F (stereo not shown),-29.8%
12,Nc1[nH]n2c(=O)cc(-c3ccccc3)nc2c1N=Nc1ccc2c(c1)OCO2,21%
13,O=C1CCCC2=C1C(c1ccc(OS(=O)(=O)c3ccc(Cl)cc3)cc1)C1=C(CCCC1=O)O2,-17.4%
14,O=C(/C=C/c1ccco1)Nc1cc(Cl)ccc1C(=O)O,-10.3%
15,CC1(C)CC(=O)C=C(OC(=O)c2ccc(Cl)cc2)C1,13.4%
16,CC1(C)CC(=O)C(N=Nc2ccc(-c3ccccc3)cc2)=C(O)C1,12.5%
17,CSc1ccc(CNC(=O)C2Cc3cc(S(=O)(=O)N4CCCCC4)ccc3N2C(C)=O)cc1 (stereo not shown),-57.1%
18,CCc1nc2ccccc2c(C(=O)OCC(=O)NCc2ccco2)c1C,-8.75%
19,CCCCNC(=O)Cn1cnc([N+](=O)[O-])n1,10.8%
